Measurements as given in the supplement of paper PMC4967469.

Compound: O=C1NC(=NCc2cccs2)S/C1=C\c1ccc2ncccc2c1 [RO-3306]
Assay: Viability of human cancer cell lines after 72 h of drug (GDSC screen)
Conditions: top dose 5 µM; top dose inferred
Experimental: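 Human cancer cell lines in 384-well plates, medium with 10% serum, drug for 72 h over a 256-fold dose range (nine 2-fold or five 4-fold steps up to the top dose). Adherent lines were fixed and stained with the nucleic acid dye Syto60, suspension lines read with resazurin; signal relative to control wells, capped at 0 and 100%. One two-parameter sigmoid per drug and line, fitted in a mixed model over all curves with the slope shared within a line.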

| Cell Line | AUC | IC50 |
| --- | --- | --- |
| LCLC-103H (large cell lung carcinoma, adherent) | 0.977 | > 5 µM |
| LK-2 (lung squamous cell carcinoma, adherent) | 0.986 | > 5 µM |
| LN-18 (glioma, adherent) | 0.983 | > 5 µM |
| LN-229 (glioma, adherent) | 0.905 | > 5 µM |
| LN-405 (glioma, adherent) | 0.975 | > 5 µM |
| LNCaP-Clone-FGC (prostate, adherent) | 0.97 | > 5 µM |
| LNZTA3WT4 (glioma, adherent) | 0.985 | > 5 µM |
| LOU-NH91 (lung squamous cell carcinoma, adherent) | 0.937 | > 5 µM |
| LOUCY (T-cell lymphoblastic leukaemia, suspension) | 0.988 | > 5 µM |
| LOXIMVI (melanoma, semi-adherent) | 0.923 | > 5 µM |
| LP-1 (myeloma, suspension) | 0.99 | > 5 µM |
| LS-180 (large intestine, adherent) | 0.982 | > 5 µM |
| LS-411N (large intestine, adherent) | 0.981 | > 5 µM |
| LS-513 (large intestine, adherent) | 0.979 | > 5 µM |
| LS-1034 (large intestine, adherent) | 0.981 | > 5 µM |
| LU-65 (large cell lung carcinoma, suspension) | 0.987 | > 5 µM |
| LU-134-A (small cell lung carcinoma, suspension) | 0.987 | > 5 µM |
| LU-135 (small cell lung carcinoma, suspension) | 0.988 | > 5 µM |
| LU-139 (small cell lung carcinoma, suspension) | 0.971 | > 5 µM |
| LU-165 (small cell lung carcinoma, suspension) | 0.988 | > 5 µM |
| LXF-289 (lung adenocarcinoma, adherent) | 0.759 | 1.72 µM |
| LoVo (large intestine, adherent) | 0.983 | > 5 µM |
| M059J (glioma, adherent) | 0.985 | > 5 µM |
| MC116 (B-cell lymphoma, suspension) | 0.999 | > 5 µM |
| MC-CAR (haematopoietic neoplasm, suspension) | 0.981 | > 5 µM |

| Cell Line | AUC | IC50 |
| --- | --- | --- |
| MC-IXC (neuroblastoma, adherent) | 0.981 | > 5 µM |
| MCF7 (breast, adherent) | 0.901 | > 5 µM |
| MDA-MB-157 (breast, adherent) | 0.978 | > 5 µM |
| MDA-MB-231 (breast, adherent) | 0.979 | > 5 µM |
| MDA-MB-330 (breast, adherent) | 0.917 | > 5 µM |
| MDA-MB-361 (breast, adherent) | 0.98 | > 5 µM |
| MDA-MB-415 (breast, adherent) | 0.978 | > 5 µM |
| MDA-MB-436 (breast, adherent) | 0.968 | > 5 µM |
| MDA-MB-453 (breast, adherent) | 0.977 | > 5 µM |
| MDA-MB-468 (breast, adherent) | 0.792 | 2.18 µM |
| MDST8 (large intestine, adherent) | 0.954 | > 5 µM |
| ME-1 (acute myeloid leukaemia, suspension) | 0.987 | > 5 µM |
| ME-180 (cervix, adherent) | 0.84 | 3.67 µM |
| MEG-01 (chronic myeloid leukaemia, suspension) | 0.981 | > 5 µM |
| MEL-HO (melanoma, adherent) | 0.981 | > 5 µM |
| MEL-JUSO (melanoma, adherent) | 0.947 | > 5 µM |
| MES-SA (uterus, adherent) | 0.953 | > 5 µM |
| MFE-280 (endometrium, adherent) | 0.982 | > 5 µM |
| MFE-296 (endometrium, adherent) | 0.906 | > 5 µM |
| MFE-319 (endometrium, adherent) | 0.932 | > 5 µM |
| MFH-ino (soft tissue, adherent) | 0.976 | > 5 µM |
| MFM-223 (breast, adherent) | 0.987 | > 5 µM |
| MG-63 (osteosarcoma, adherent) | 0.984 | > 5 µM |
| MHH-CALL-2 (B-cell leukaemia, suspension) | 0.992 | > 5 µM |
| MHH-ES-1 (Ewing sarcoma, adherent) | 0.946 | > 5 µM |

| Cell Line | AUC | IC50 |
| --- | --- | --- |
| MHH-NB-11 (neuroblastoma, adherent) | 0.985 | > 5 µM |
| MHH-PREB-1 (B-cell leukaemia, suspension) | 0.981 | > 5 µM |
| MIA-PaCa-2 (pancreas, adherent) | 0.894 | > 5 µM |
| MKN1 (stomach, adherent) | 0.949 | > 5 µM |
| MKN7 (stomach, adherent) | 0.964 | > 5 µM |
| MKN28 (stomach, adherent) | 0.978 | > 5 µM |
| ML-2 (acute myeloid leukaemia, suspension) | 0.986 | > 5 µM |
| MLMA (hairy cell leukaemia, semi-adherent) | 0.953 | > 5 µM |
| MM1S (myeloma, suspension) | 0.968 | > 5 µM |
| MMAC-SF (melanoma, adherent) | 0.934 | > 5 µM |
| MN-60 (B-cell leukaemia, suspension) | 0.984 | > 5 µM |
| MOG-G-CCM (glioma, adherent) | 0.962 | > 5 µM |
| MOG-G-UVW (glioma, adherent) | 0.869 | 4.41 µM |
| MOLM-13 (acute myeloid leukaemia, suspension) | 0.957 | > 5 µM |
| MOLM-16 (acute myeloid leukaemia, suspension) | 0.873 | 3.83 µM |
| MOLP-8 (myeloma, suspension) | 0.971 | > 5 µM |
| MOLT-4 (lymphoblastic leukaemia, suspension) | 0.963 | > 5 µM |
| MOLT-13 (T-cell lymphoblastic leukaemia, suspension) | 0.975 | > 5 µM |
| MOLT-16 (T-cell lymphoblastic leukaemia, suspension) | 0.966 | > 5 µM |
| MONO-MAC-6 (acute myeloid leukaemia, suspension) | 0.979 | > 5 µM |
| MPP-89 (mesothelioma, adherent) | 0.887 | > 5 µM |
| MRK-nu-1 (breast, suspension) | 0.978 | > 5 µM |
| MS751 (cervix, adherent) | 0.941 | > 5 µM |
| MS-1 (small cell lung carcinoma, suspension) | 0.991 | > 5 µM |
| MSTO-211H (mesothelioma, adherent) | 0.988 | > 5 µM |

| Cell Line | AUC | IC50 |
| --- | --- | --- |
| MV-4-11 (leukaemia, suspension) | 0.826 | 2.32 µM |
| MY-M12 (leukaemia, suspension) | 0.981 | > 5 µM |
| MZ1-PC (pancreas, adherent) | 0.962 | > 5 µM |
| MZ2-MEL (melanoma, adherent) | 0.849 | 4.78 µM |
| MZ7-mel (melanoma, adherent) | 0.987 | > 5 µM |
| Mo-T (hairy cell leukaemia, suspension) | 0.967 | > 5 µM |
| NALM-6 (B-cell leukaemia, suspension) | 0.985 | > 5 µM |
| NAMALWA (Burkitt lymphoma, suspension) | 0.986 | > 5 µM |
| NB1 (neuroblastoma, semi-adherent) | 0.982 | > 5 µM |
| NB5 (neuroblastoma, adherent) | 0.986 | > 5 µM |
| NB6 (neuroblastoma, adherent) | 0.937 | > 5 µM |
| NB7 (neuroblastoma, adherent) | 0.986 | > 5 µM |
| NB10 (neuroblastoma, adherent) | 0.963 | > 5 µM |
| NB12 (neuroblastoma, adherent) | 0.979 | > 5 µM |
| NB13 (neuroblastoma, adherent) | 0.893 | 4.75 µM |
| NB14 (neuroblastoma, adherent) | 0.794 | 2.15 µM |
| NB17 (neuroblastoma, adherent) | 0.984 | > 5 µM |
| NB69 (neuroblastoma, adherent) | 0.981 | > 5 µM |
| NB(TU)1-10 (neuroblastoma, adherent) | 0.951 | > 5 µM |
| NB-4 (acute myeloid leukaemia, suspension) | 0.989 | > 5 µM |
| NCC010 (kidney, adherent) | 0.89 | > 5 µM |
| NCC021 (kidney, adherent) | 0.954 | > 5 µM |
| NCI-H23 (lung adenocarcinoma, adherent) | 0.864 | 4.31 µM |
| NCI-H28 (mesothelioma, adherent) | 0.915 | > 5 µM |

A lower IC50 marks a more sensitive line; a limit (>, <) means that the fit lies beyond the doses tested. AUC, from the same fit, is the share of area under the viability curve across the 256-fold dose range; it is 1 without any effect and falls as sensitivity rises. The top dose, if marked as inferred, is not printed in the source and was worked back from the curve model.
